About 4,500 (2.2%) of roughly 200,000 compounds were called active. Inconclusive results, whose numbers are uncertain, are shown with a selection of clear calls. Calls come from the whole dose curve; as a rule, active = well fitted inhibition curve with a large enough effect; inconclusive = small, poorly fitted or top-dose-only effect, or effect the other way; inactive = flat fitted curve, though single readings scatter. Potencies of inconclusive entries are doubtful fits and often do not repeat.
These molecules were tested against Cruzipain (Trypanosoma cruzi) (UniProt P25779) (assay: qHTS Assay for Promiscuous and Specific Inhibitors of Cruzain (without detergent)). Conditions: purified cruzain, Z-FR-AMC fluorescence, no detergent.
UniProt P25779, sequence (P25779 whole entry, looked up): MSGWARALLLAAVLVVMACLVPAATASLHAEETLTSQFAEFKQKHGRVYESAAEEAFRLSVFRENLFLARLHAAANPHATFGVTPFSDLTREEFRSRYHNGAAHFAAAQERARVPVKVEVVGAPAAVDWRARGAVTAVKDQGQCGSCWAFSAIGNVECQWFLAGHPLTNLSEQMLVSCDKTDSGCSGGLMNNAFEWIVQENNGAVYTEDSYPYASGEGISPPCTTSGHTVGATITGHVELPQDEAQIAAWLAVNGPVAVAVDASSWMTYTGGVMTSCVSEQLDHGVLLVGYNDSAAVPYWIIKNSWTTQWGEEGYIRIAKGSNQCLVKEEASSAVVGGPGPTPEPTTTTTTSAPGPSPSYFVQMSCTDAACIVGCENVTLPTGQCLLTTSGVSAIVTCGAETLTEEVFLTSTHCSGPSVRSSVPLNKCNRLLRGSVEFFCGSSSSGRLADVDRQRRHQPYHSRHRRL
Method in brief: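 Detergent-free condition (0.00005% Triton X-100) in acetate buffer pH 5.5 with DTT. 1.5 nM enzyme and compound were pre-mixed 15 min, then 2 uM Z-FR-AMC substrate added; reaction progress from fluorescence change between first and third reads (60 s).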
Note: nearly all actives have a fitted effect of over 40% in size.
Potency is the fitted concentration of half-maximal effect; tags give direction and shape of the fitted curve.
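Throughout, for max response, negative = inhibition: plate controls were enzyme without inhibitor for no effect and buffer without enzyme for full effect.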

| Structure (SMILES) | Potency | max response, negative = inhibition |
| --- | --- | --- |
| Cc1ccc(NC(=O)C(OC(=O)c2ccc(O)cc2)c2ccccc2)cc1Cl (stereo not drawn) | inconclusive: 25.1 µM [inhibitor, single point] |  |
| CCn1cc(C(=O)NCc2cccc(F)c2)c(=O)c2cc(F)c(N3CCN(C(=O)c4ccco4)CC3)cc21 | inconclusive: 10 µM [activator, partial curve] |  |
| Cc1ccc(-c2noc(C3CCCN(S(=O)(=O)c4ccc(S(=O)(=O)N(C)C)cc4)C3)n2)o1 (stereo not drawn) | inconclusive: 39.8 µM [inhibitor, single point] |  |
| C#CCn1c(=O)n(-c2cccc(Cl)c2C)c(=O)c2c3c(sc21)CN(C(C)=O)CC3 | inconclusive: 39.8 µM [activator, single point] |  |
| Cc1ccc(CNC(=O)Cc2csc3ccccc23)cc1 |  | inactive: -3.6% |
| CCOc1ccc(CCNC(=O)CSc2nnnn2-c2ccccc2)cc1OCC | inconclusive: 39.8 µM [activator, single point] |  |
| O=S(=O)(c1ccc2ccccc2c1)N1CCN(C(=S)Nc2ccc(F)cc2)CC1 | inconclusive: 39.8 µM [inhibitor, single point] |  |
| COc1ccc(OC)c(Nc2sc(C(=O)c3ccccc3)c(N)c2S(=O)(=O)c2ccccc2)c1 | active: 7.94 µM |  |
| COCCCNC(=O)C1CCN(S(=O)(=O)c2c(C)noc2/C=C\c2ccc(OC)cc2)CC1 | inconclusive: 25.1 µM [activator, single point] |  |
| Cc1cccc(N2CCN(S(=O)(=O)c3cc(C(=O)Nc4ccc(Oc5ccccc5)cc4)ccc3F)CC2)c1C | inconclusive: 3.16 µM [inhibitor, partial curve] |  |
| C[C@]1(C(=O)NCCCNc2ncc(C(F)(F)F)cc2Cl)C=C[C@@H](Cc2ccccc2)N1C(=O)c1ccccc1 | inconclusive: 15.8 µM [activator, partial curve] |  |
| CC(C)=CC(=O)Nc1nnc(-c2ccc(F)cc2)s1 | active: 12.6 µM |  |
| COc1cc(NC(=O)NS(=O)(=O)c2ccc(C)cc2)cc(OC)c1 |  | inactive: -0.697% |
| COc1cc(NC(=O)c2cccs2)c(C(=O)OCC(=O)NC(C)c2ccccc2)cc1OC (stereo not drawn) | inconclusive: 31.6 µM [activator, single point] |  |
| CC1CCCCC1NC(=O)COC(=O)c1ccccc1NC(=O)c1ccco1 (stereo not drawn) |  | inactive: -0.537% |
| CN(Cc1ccccc1)S(=O)(=O)c1ccc(NC(=O)c2cc(=O)c3ccccc3o2)cc1 | inconclusive: 39.8 µM [inhibitor, single point] |  |
| O=C1C(=O)c2cccc3cccc1c23 |  | inactive: -9.67% |
| COc1ccc(CNc2cc(-c3ccccc3Cl)ncn2)c(OC)c1 |  | inactive: 0.573% |
